This is an account of results in article PMC11142363.

This test addresses TAR-DNA binding protein 43 (TDP43) (human (endogenous in SH-SY5Y; endogenous in human spinal cord tissue)), Q13148. The test can be described thus: proximity ligation; Duolink PLA in fixed, permeabilised differentiated SH-SY5Y cells (control siRNA) treated with 10 uM MMS for 2 hr; foci per cell counted. To be noted: remark: other sources report otherwise.

Results are given in words; binding and its absence hold for the method and conditions named. Binding seen in cells or lysates may run through a third protein. Some entries that bind do so weakly or less than the wild type.

B1: X-ray repair cross-complementing protein 4 (XRCC4), Q13426 1-336 (protein)
chain: MERKISRIHLVSEPSITHFLQVSWEKTLESGFVITLTDGHSAWTGTVSESEISQEADDMAMEKGKYVGELRKALLSGAGPADVYTFNFSKESCYFFFEKNLKDVSFRLGSFNLEKVENPAEVIRELICYCLDTIAENQAKNEHLQKENERLLRDWNDVQGRFEKCVSAKEALETDLYKRFILVLNEKKTKIRSLHNKLLNAAQEREKDIKQEGETAICSEMTADRDPVYDESTDEESENQTDLSGLASAAVSKDDSIISSLDVTDIAPSRKRRQRMQRNLGTEPKMAPQENQLQEKENSRPDSSLPETSKKEHISAENMSLETLRNSSPEDLFDEI
For the molecule B1, the binding entry is recorded as “binds”.
